What all share (test): Primary Screen for Target Class Profiling of Small Molecule Inhibitors of Methyltransferases
In experiment [1] the target is Glycine N-methyltransferase (Homo sapiens) (UniProt Q14749). The conditions noted are these: purified enzyme, MTase-Glo SAH luminescence; measured here: GNMT inhibition; at 40 µM; stronger effect = lower value. The text has this: (§1) PI: Matthew D. Hall Ph.D. and Quinlin M. Hanson Ph.D.
(§2) National Center for Advancing Translational Sciences (NCATS)
(§3) National Institute of Health (NIH), Rockville, MD
(§4) Target class profiling (TCP) is a chemical biology approach amenable to investigating understudied biological targets. TCP is achieved by developing a generalizable assay platform and applying it to screen a curated set of compound libraries against representative members of a target class. Small molecule methyltransferases (SMMTase) are a subclass of methyltransferase that act on metabolites to modulate signaling pathways, metabolize xenobiotics, or balance the available methyl pool. We screened four curated libraries totaling 27,574 unique compounds against the SMMTases nicotinamide N-methyltransferase (NNMT), phenylethanolamine N-methyltransferase (PNMT), histamine N-methyltransferase (HNMT), glycine N-methyltransferase (GNMT), catechol O-methyltransferase (COMT), and guanidinoacetate N-methyltransferase (GAMT). The data generated by this TCP can be leveraged for informed tool molecule development. For example, in the associated publication we identified a chemotype of HNMT-selective inhibitors. Additionally, we identified a putative SMMTase-selective inhibitor with potential as a tool molecule for studying broader methyltransferase biology.
(§5) High-through put screening assays were developed at the National Center for Advancing Translational Science (NCATS) for the enzymes NNMT, PNMT, HNMT, GNMT, COMT, and GAMT. Enzymatic activity was measured as a function of SAM cofactor conversion using the MTase Glo kit (Promega) for all enzymes. All assays were performed in 1536-well format with substrates and SAM concentrations at KM values. Enzyme concentration and assay timing were optimized for 10-20% SAM conversion. Initial screening of 27,574 compounds was done as single-point assays using the highest compound concentration (40 uM). […] These compounds were replated in 11-point dose response and assayed against NNMT, PNMT, HNMT, GNMT, COMT, GAMT, and a counter-assay. The IC50 and efficacy (maximal response) values were determined for each dose-response curve. These values are also accounted for in the area under the curve (AUC) values.
(§6) PROTOCOL TABLE (as described by Inglese J, Shamu CE and Guy RK. 2007)
(§7) SEQUENCE No. (e.g., 1, 2, 3, etc.); […] (e.g., Cells, Incubation, Reagent, etc.); VALUE; DESCRIPTION.
(§8) 1; Reagent; 2 uL; SMMTase Enzyme (2x) in reaction buffer, columns 1- 48.
(§9) 2; Reagent; 1 uL; SAM (4x) in reaction buffer, columns 1-48.
(§10) 3; Controls; 23 nL; DMSO in column 4; sinefungin in DMSO (0 uM - 40 uM) in 7-point 1:2 dilution series (n = 2) in column 2.
(§11) 4; Compounds; 23 nL; Columns 5-48.
(§12) 5; Reagent; 1 uL; Substrate (4x) in reaction buffer, columns 2-48.
(§13) 6; Time; 20-30 min; Incubation.
(§14) 7; Reagent; 1 uL; MTase-Glo reagent (5X), columns 1-48.
(§15) 8; Time; 30 min; Incubation.
(§16) 9; Reagent; 5 uL; MTase-Glo Detection reagent, columns 1-48.
(§17) 10; Time; 30 min; Incubation, luminescence evolution.
(§18) 11; Detection; Luminescence; ViewLux uHTS Microplate Imager (PerkinElmer).
(§19) NOTES (numbers refer to Sequence numbers above)
(§20) 1, 2, 5. White Medium Binding Greiner 1536-well plates (Cat #789175-F, Greiner Bio-One, Monroe, NC); Reaction buffer: 50 mM Tris, pH 8.0, 3 mM MgCl2, 1 mM EDTA, 50 mM NaCl, 1 mM DTT, and 0.1 mg/mL BSA. Evaporation was prevented by covering assay plates with metal lids containing holes to allow gas diffusion.
(§21) 1. Six SMMTase were profiled: HNMT, GNMT, PNMT, COMT, NNMT, GAMT
(§22) 5. The corresponding substrate was used for each enzyme: HNMT - 5.3 uM Histamine; GNMT - >500 uM Glycine; PNMT - 16.2 uM Norephinephrine; COMT - 13.7 uM Norephinephrine; NNMT - 3.8 uM Nicotinamide; GAMT - 2.5 uM Guanidinoacetate.6, 8, 10. Room temperature
(§23) 6. Final reaction conditions: 10 nM COMT, 5 uM SAM, 15 uM norepinephrine, 50 mM Tris, pH 8.0, 3 mM MgCl2, 1 mM EDTA, 50 mM NaCl, 1 mM DTT, and 0.1 mg/mL BSA; refer to tables 2 and S1 for specific timing.
8. […]

For experiment [2], the target named is Guanidinoacetate N-methyltransferase (Homo sapiens) (UniProt Q14353). The conditions noted are these: purified enzyme, MTase-Glo SAH luminescence; measured here: GAMT inhibition; at 40 µM; stronger effect = lower value.
Text: as §1, §2, §3, §4, §5, §6, §7, §8, §9, §10, §11, §12, §13, §14, §15, §16, §17, §18, §19, §20, §21, §22, §23
8. […]

Experiment [3] has as its target Histamine N-methyltransferase (Homo sapiens) (UniProt P50135). The conditions noted are these: purified enzyme, MTase-Glo SAH luminescence; measured here: HNMT inhibition; at 40 µM; stronger effect = lower value.
Text: as §1, §2, §3, §4, §5, §6, §7, §8, §9, §10, §11, §12, §13, §14, §15, §16, §17, §18, §19, §20, §21, §22, §23
8. […]

Experiment [4] concerns the target Nicotinamide N-methyltransferase (Homo sapiens) (UniProt P40261). The conditions noted are these: purified enzyme, MTase-Glo SAH luminescence; measured here: NNMT inhibition; at 40 µM; stronger effect = lower value.
Text: as §1, §2, §3, §4, §5, §6, §7, §8, §9, §10, §11, §12, §13, §14, §15, §16, §17, §18, §19, §20, §21, §22, §23
8. […]

The target in experiment [5] is Phenylethanolamine N-methyltransferase (Homo sapiens) (UniProt P11086). To be noted: purified enzyme, MTase-Glo SAH luminescence; measured here: PNMT inhibition; at 40 µM; stronger effect = lower value.
Text: as §1, §2, §3, §4, §5, §6, §7, §8, §9, §10, §11, §12, §13, §14, §15, §16, §17, §18, §19, §20, §21, §22, §23
8. […]

SMILES strings stand for the structures. The list shows a part of the results. Shown are side measurements of this screen, not its main read-out; they come without a call.
On the % scale 0 is the no-effect control and ±100 the full control effect.

Turning to `COc1ccc(-n2nc(C3CCCN(C(=O)c4ccc(Cl)nc4)C3)[nH]c2=O)cc1` (centres undefined), the activity change, negative = inhibition in experiment [1] was -4.01%; in experiment [2], -3%; in experiment [3] it was -0.866%; in experiment [4], -16%; in experiment [5] it was -7.28%.
For `CCC(NC(C)C)C(O)c1ccc(O)c(O)c1` (centres undefined), in that order: -11.2%, 4.33%, -1.26%, -12.7% and -3.36%.
For `COc1ccc(S(=O)(=O)N2CCC3(CCCCO3)CC2)cc1`, in that order: -9.54%, -9.59%, -2.2%, -14.3% and -7.87%.
Regarding `COC(=O)CCSC/C=C(\C)CCn1cc(CCc2ccc(-c3ccccc3)cc2)nn1`, the activity change, negative = inhibition is -77.3% in experiment [1], -8.23% in experiment [3], -17.6% in experiment [4] and 7.84% in experiment [5].
In the case of `CSc1ccc(CCNC(=O)Cn2ccc3cc(S(=O)(=O)N4CCC(C)CC4)ccc32)cc1`, the activity change, negative = inhibition in experiment [1] turned out to be 9.35%; in experiment [2], 1.35%; in experiment [3], 3.62%; in experiment [4], 5.72%; in experiment [5], 3.26%.
For `COc1ccccc1CNC(=O)C1(C)Cn2nc(-c3ccccc3)cc2C(=O)N1Cc1ccco1` (centres undefined), in that order: -0.359%, 4.43%, 3.07%, 0.676% and -0.969%.
For `O=C(CCn1ccc2cc(S(=O)(=O)N3CCCC3)ccc21)NCc1ccco1`, in that order: -0.617%, -5.21%, -1.38%, -1.49% and -0.697%.
Take `O=c1[nH]c(N2CCc3ccccc3C2)nc2c1CCN(Cc1cccs1)CC2`: the activity change, negative = inhibition was 1.78% in experiment [1]; 2.17% in experiment [2]; 1.41% in experiment [3]; 7.93% in experiment [4]; -0.505% in experiment [5].
The like results for `CN(C)Cc1nnc(C2CC(NC(=O)c3conc3-c3ccccc3)C2)n1C` (centres undefined) were, in that order, -5.97%, -7.63%, -3.37%, -9.58% and -8.3%.
On to `O=C(Cn1nc2n(CCc3ccccc3)c(=O)c3ccccc3n2c1=O)c1ccc(F)cc1`, for which the activity change, negative = inhibition is -1.78% in experiment [1]; 1.98% in experiment [2]; 4.38% in experiment [3]; -5.75% in experiment [4]; 1.87% in experiment [5].
For `COc1ccccc1CNC(=O)C1(C)Cn2nc(-c3ccccc3)cc2C(=O)N1Cc1ccccc1Cl` (centres undefined), in that order: -1.94%, 0.749%, -5.52%, 0.064% and -9.28%.
On to `CN1C(=O)c2cc(C(=O)NCCCc3ccccc3)nn2CC1(C)C(=O)NC1CCCCCC1` (centres undefined), for which the activity change, negative = inhibition in experiment [1] was -0.063%; in experiment [2], 4.17%; in experiment [3] it was -3.51%; in experiment [4], -2.85%; in experiment [5] it was -1.15%.
The like results for `O=C(c1cccnc1)N1CC[C@H](c2nc3ccccc3o2)C1` were, in that order, -1.55%, 1.79%, 1.06%, -6.28% and 13.1%.
On to `CC(C)NC(=O)c1ccc2c(=O)n(Cc3ccccc3)c3nn(Cc4ccccc4F)c(=O)n3c2c1`, for which the activity change, negative = inhibition in experiment [1] is 7.78%; in experiment [2], 0%; in experiment [3], 11.2%; in experiment [4], 7.75%; in experiment [5], 8.46%.
Consider `CCN1CCN(Cc2ccc(NC(=O)c3ccc(C)c(Oc4ccnc5[nH]ccc45)c3)cc2C(F)(F)F)CC1`, for which the activity change, negative = inhibition in experiment [1] is -6.06%; in experiment [2], 3.18%; in experiment [3], -35.9%; in experiment [4], -15.5%; in experiment [5] it was -0.872%.

Source of the values: PubChem BioAssay AID1745853 (National Center for Advancing Translational Sciences (NCATS), 2022).
